One test relates to HSkMC. The test is described as follows: cytotoxicity call (relative viability < 0.9). To be noted: 10 µM.
The next test concerns HepG2. The test is described as follows: cytotoxicity call (relative viability < 0.9). To be noted: 10 µM.
The test system of a further test is S. aureus RN4220. The test is described as follows: growth inhibition call (relative growth <= 0.2). Particulars: 50 µM.

The list shows a part of the results.

For `CO[C@H](CN(C)C(=O)c1ccccc1F)[C@H](C)CN([C@H](C)CO)S(=O)(=O)c1ccc(Cl)cc1`, the cytotoxicity call in the test with HSkMC and with HepG2 was “inactive” in each case. Besides, the growth inhibition call in the test on S. aureus RN4220 is “inactive”.

`O=C(O)c1ccc[n+]([O-])c1`: the cytotoxicity call with HSkMC and with HepG2 was “inactive” each time. In addition, the growth inhibition call with S. aureus RN4220 was “inactive”.

With `C[C@H](CO)N1C[C@H](C)[C@@H](CN(C)C(=O)NC2CCCCC2)Oc2c(NC(=O)Cn3cnnn3)cccc2C1=O`, the cytotoxicity call in the test with HSkMC and in the test with HepG2 was “inactive” throughout. For the same compound, in the test on S. aureus RN4220, the growth inhibition call is “inactive”.

With `C[C@H]1CN([C@@H](C)CO)C(=O)c2cccc(NC(=O)Nc3cccc4ccccc34)c2O[C@H]1CN(C)C(=O)Nc1cccc2ccccc12`, the cytotoxicity call with HSkMC and with HepG2 was “inactive” in each case. In the test on S. aureus RN4220, the growth inhibition call was “inactive”.

For `Cc1csc2sc(/C=N/Cc3cccs3)c(C)c12`, the cytotoxicity call with HSkMC is “inactive”. The cytotoxicity call with HepG2 was “active”. The growth inhibition call with S. aureus RN4220 was “inactive”.

On to `COc1ccc(NC(=O)Nc2ccc3c(c2)CC(=O)N([C@@H](C)CO)C[C@H](C)[C@H](CN(C)C(=O)Nc2cccc4ccccc24)O3)cc1`, for which the cytotoxicity call in the test on HSkMC and in the test with HepG2 was “inactive” throughout. The growth inhibition call with S. aureus RN4220 was “inactive”.

In the case of `C[C@@H]1CN([C@@H](C)CO)C(=O)c2cc(NC(=O)Nc3ccc(C(F)(F)F)cc3)ccc2O[C@@H]1CN(C)Cc1ccc(-c2ccccc2)cc1`, the cytotoxicity call in the test with HSkMC and in the test on HepG2 was “active” throughout. For the same compound, in the test on S. aureus RN4220, the growth inhibition call is “inactive”.

For `C[C@@H]1CN([C@H](C)CO)S(=O)(=O)c2ccc(C#CC3(O)CCCC3)cc2O[C@H]1CN(C)C(=O)c1ccncc1`, the cytotoxicity call in the test with HSkMC and in the test on HepG2 was “inactive” in each case. Moreover, the growth inhibition call in the test with S. aureus RN4220 was “inactive”.

Take `O=C(NO)c1cn(-c2cccc(C(=O)N3CCC4(CC3)C(=O)NCN4c3ccccc3)c2)nn1`: the cytotoxicity call with HSkMC and in the test with HepG2 was “active” throughout. In addition, the growth inhibition call in the test on S. aureus RN4220 was “active”.

Take `Cl.Cl.NCCc1c[nH]cn1`: the cytotoxicity call with HSkMC and in the test with HepG2 was “inactive” each time. Further, in the test on S. aureus RN4220, the growth inhibition call is “inactive”.

With `CC(=O)n1cc([C@@H]2C=C(C(=O)N3CCCCCCC3)O[C@H](OCc3ccc(CO)cc3)C2)c2ccccc21`, the cytotoxicity call in the test with HSkMC and in the test on HepG2 was “inactive” throughout. Moreover, in the test with S. aureus RN4220, the growth inhibition call was “inactive”.

As for `NCCCCCC(=O)O`, the cytotoxicity call in the test with HSkMC and with HepG2 was “inactive” each time. Besides, the growth inhibition call in the test on S. aureus RN4220 is “inactive”.

`C[C@H](CO)N1C[C@H](C)[C@H](CN(C)Cc2ccc3c(c2)OCO3)Oc2ncc(Br)cc2C1=O`: the cytotoxicity call in the test on HSkMC and in the test with HepG2 was “inactive” in each case. Moreover, in the test with S. aureus RN4220, the growth inhibition call was “inactive”.

Consider `CN[C@H]1CN(c2ccc3c(=O)c(C(=O)O)cn(-c4nccs4)c3n2)C[C@@H]1OC`, for which the cytotoxicity call in the test with HSkMC and in the test with HepG2 was “inactive” in each case. The growth inhibition call with S. aureus RN4220 was “inactive”.

In the case of `COc1ccc(S(=O)(=O)N(C)C[C@@H]2OCCCC[C@@H](C)Oc3ccc(NC(=O)Nc4c(C)noc4C)cc3C(=O)N([C@@H](C)CO)C[C@@H]2C)cc1`, the cytotoxicity call with HSkMC and with HepG2 was “inactive” each time. In addition, the growth inhibition call in the test with S. aureus RN4220 was “inactive”.

Consider `CSCC[C@H](NC(=O)[C@H](Cc1c[nH]c2ccccc12)NC(=O)CNC(=O)[C@@H](NC(=O)[C@H](Cc1ccc(OS(=O)(=O)O)cc1)NC(=O)[C@H](CC(=O)O)NC(=O)[C@H](CCC(N)=O)NC(=O)[C@@H]1CCC(=O)N1)[C@@H](C)O)C(=O)N[C@@H](CC(=O)O)C(=O)N[C@@H](Cc1ccccc1)C(N)=O`, for which the cytotoxicity call in the test with HSkMC and with HepG2 was “inactive” each time. Also, in the test on S. aureus RN4220, the growth inhibition call was “inactive”.

For `C[C@H](CO)N1C[C@H](C)[C@@H](CN(C)C(=O)C2CCCCC2)Oc2cc(C#CC(C)(C)O)ccc2S1(=O)=O`, the cytotoxicity call in the test with HSkMC and with HepG2 was “inactive” each time. In addition, in the test on S. aureus RN4220, the growth inhibition call is “inactive”.

Consider `CO[C@@H]1CN(C)C(=O)c2cc(NS(=O)(=O)c3cn(C)cn3)ccc2OC[C@H](C)N(CC2CC2)C[C@H]1C`, for which the cytotoxicity call with HSkMC and with HepG2 was “inactive” each time. Besides, the growth inhibition call in the test on S. aureus RN4220 is “inactive”.

Consider `C[C@H]1CN([C@@H](C)CO)C(=O)Cc2cc(NS(C)(=O)=O)ccc2O[C@@H]1CN(C)S(=O)(=O)c1cn(C)cn1`, for which the cytotoxicity call in the test with HSkMC and with HepG2 was “inactive” in each case. The growth inhibition call in the test with S. aureus RN4220 was “inactive”.

Consider `CC(C)NC(=O)N(C)C[C@H]1Oc2cc(C#Cc3ccccn3)ccc2S(=O)(=O)N([C@H](C)CO)C[C@@H]1C`, for which the cytotoxicity call with HSkMC and in the test on HepG2 was “inactive” each time. Moreover, the growth inhibition call in the test with S. aureus RN4220 was “inactive”.

Consider `C[C@@H]1CCCCO[C@@H](CN(C)C(=O)Nc2ccccc2)[C@@H](C)CN([C@H](C)CO)C(=O)c2cc(NS(=O)(=O)c3ccccc3)ccc2O1`, for which the cytotoxicity call in the test on HSkMC and in the test with HepG2 was “inactive” in each case. The growth inhibition call in the test with S. aureus RN4220 was “inactive”.

Take `C[C@H](O)C#Cc1cnc2c(c1)C(=O)N([C@@H](C)CO)C[C@H](C)[C@@H](CN(C)C(=O)Nc1ccc(C(F)(F)F)cc1)O2`: the cytotoxicity call in the test on HSkMC and with HepG2 was “inactive” each time. Further, the growth inhibition call with S. aureus RN4220 was “inactive”.

For `O=C(CCCCCNC(=O)OCCCCO[C@@H]1C[C@H](c2ccc(C(F)(F)F)cc2)C=C(C(=O)N2CCN(Cc3ccc4c(c3)OCO4)CC2)O1)NO`, the cytotoxicity call in the test on HSkMC and in the test with HepG2 was “inactive” in each case. The growth inhibition call in the test on S. aureus RN4220 was “inactive”.

For the compound `COc1ccc(NC(=O)N(C)C[C@H]2Oc3c(NS(C)(=O)=O)cccc3C(=O)N([C@H](C)CO)C[C@H]2C)cc1`, the cytotoxicity call with HSkMC and with HepG2 was “inactive” in each case. Moreover, in the test with S. aureus RN4220, the growth inhibition call was “inactive”.

Consider `CC(C)(C)OC(=O)Nc1cccc([C@@H]2CC(=O)N(C(=O)OCc3ccccc3)[C@@H]2C(=O)Nc2cccc3cccnc23)c1`, for which the cytotoxicity call with HSkMC and with HepG2 was “inactive” each time. Also, the growth inhibition call in the test on S. aureus RN4220 was “inactive”.

As to `C[C@@H]1CCCCO[C@@H](CN(C)Cc2ccccc2)[C@@H](C)CN([C@H](C)CO)C(=O)c2cc(NS(=O)(=O)c3ccccc3)ccc2O1`, the cytotoxicity call in the test on HSkMC (human skeletal muscle cells) and with HepG2 was “inactive” each time. In addition, the growth inhibition call with S. aureus RN4220 was “inactive”.

With `CC(=O)N1[C@@H](CO)[C@H](c2ccccc2)C12CN(C(=O)CN1CCOCC1)C2`, the cytotoxicity call in the test with HSkMC and in the test with HepG2 was “inactive” throughout. In addition, the growth inhibition call with S. aureus RN4220 was “inactive”.
